According to paper PMC4336329 (PLoS ONE, 2015):
The whole screen tested about 310,000 compounds, of which about 2,200 (0.71%) showed an effect of 50% or more. Effects have a minus sign here. The list shows a part of the results.

Biological target: human ether-à-go-go-related gene (hERG) potassium channel (human, UniProt Q12809)
Test: primary screen, population patch clamp on CHO cells stably expressing hERG

human ether-à-go-go-related gene (hERG) potassium channel, sequence (Q12809 whole entry, looked up): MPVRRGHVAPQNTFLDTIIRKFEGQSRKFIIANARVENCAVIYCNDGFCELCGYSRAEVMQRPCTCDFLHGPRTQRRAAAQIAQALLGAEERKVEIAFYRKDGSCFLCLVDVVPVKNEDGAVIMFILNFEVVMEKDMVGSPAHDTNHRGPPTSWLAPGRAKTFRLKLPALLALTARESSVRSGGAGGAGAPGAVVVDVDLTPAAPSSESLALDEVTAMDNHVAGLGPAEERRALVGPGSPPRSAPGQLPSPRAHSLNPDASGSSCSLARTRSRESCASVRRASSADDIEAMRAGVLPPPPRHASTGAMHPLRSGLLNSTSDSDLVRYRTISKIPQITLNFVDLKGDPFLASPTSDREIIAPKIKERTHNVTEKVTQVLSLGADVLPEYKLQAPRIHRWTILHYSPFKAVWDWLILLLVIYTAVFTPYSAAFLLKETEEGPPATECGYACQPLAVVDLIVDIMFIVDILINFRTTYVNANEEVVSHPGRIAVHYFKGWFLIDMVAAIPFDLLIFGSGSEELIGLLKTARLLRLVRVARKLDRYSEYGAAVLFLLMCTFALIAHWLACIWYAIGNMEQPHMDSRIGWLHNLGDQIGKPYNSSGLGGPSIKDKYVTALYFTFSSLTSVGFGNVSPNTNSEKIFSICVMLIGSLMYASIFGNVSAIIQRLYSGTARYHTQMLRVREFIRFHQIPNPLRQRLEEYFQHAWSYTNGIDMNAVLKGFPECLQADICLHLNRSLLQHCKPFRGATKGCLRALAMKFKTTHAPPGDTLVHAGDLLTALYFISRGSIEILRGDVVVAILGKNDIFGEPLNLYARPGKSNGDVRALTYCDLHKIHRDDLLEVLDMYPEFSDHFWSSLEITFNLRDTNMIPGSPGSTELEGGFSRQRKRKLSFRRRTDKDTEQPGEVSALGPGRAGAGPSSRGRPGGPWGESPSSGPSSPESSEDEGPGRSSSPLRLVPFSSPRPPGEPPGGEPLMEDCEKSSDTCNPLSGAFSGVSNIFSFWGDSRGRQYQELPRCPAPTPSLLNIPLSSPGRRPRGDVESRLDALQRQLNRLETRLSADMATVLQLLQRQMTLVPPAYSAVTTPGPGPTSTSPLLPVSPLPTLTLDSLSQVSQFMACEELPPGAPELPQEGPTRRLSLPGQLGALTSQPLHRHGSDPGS

Row | Structure (SMILES) | hERG current change (%, negative = inhibition) at 1uM
1 | Cc1nc2ccc(NC(=O)CCS(=O)(=O)c3ccccc3)cc2s1 | 12.2%
2 | COC(=O)Cc1ccc(NC(=S)N2CCN(c3cccc(O)c3)CC2)cc1 | 20.6%
3 | CC(CCc1ccccc1)NC(=O)COC(=O)CC1CC2CCC1C2 (stereo not shown) | 12.8%
4 | COc1ccccc1Nc1nc(-c2cccc([N+](=O)[O-])c2)nc2ccccc12 | 1.19%
5 | COc1cccc(/C=N/NC(=O)Cn2cnc3c2c(=O)n(C)c(=O)n3C)c1OC | 11.6%
6 | O=C(c1cnn2c(C(F)F)cc(C3CC3)nc12)N1CCCC1 | -1.23%
7 | O=C(c1ccc(OC2CCN(CCc3ccccc3)CC2)cc1)N1CCCCC1CCCO (stereo not shown) | 7.99%
8 | CC(=O)Cn1cnc2c(cnn2-c2ccccc2)c1=O | 13.2%
9 | Cc1ccc(-c2nc(NC(=O)CSc3cc(C)c4ccccc4n3)ns2)cc1 | 10.5%
10 | Cc1cc(C)c(C(=O)CN2C(=O)C(=O)N(C3CCCC3)C2=O)cc1C | 16.5%
11 | CC(O)c1cccc(NC(=O)CCC(=O)O)c1 (stereo not shown) | 5.28%
12 | CN1c2ccccc2C(C)(C)[C@]12C=Cc1cc(O)ccc1O2 | 16.4%
13 | COc1ccc(C2=NN(CC(=O)Nc3ccccc3C)C(=O)CC2)cc1 | -7.27%
14 | Cc1ccccc1NC(=O)CN1CCC(C(=O)c2ccc3c(c2)OCCO3)CC1 | -7.95%
15 | Cc1cc(NC(=O)COC(=O)c2cccc(OCc3ccccc3)c2)no1 | 16.9%
16 | CCOc1ccc(S(=O)(=O)N2CCN(S(=O)(=O)c3ccc(C(C)=O)cc3)CC2)cc1 | 11.2%
17 | Cc1ccc(NC(=O)C2CC(=O)Nc3nncn32)cc1 (stereo not shown) | 5.23%
18 | Cn1cccc1/C=C1\SC(=O)N(CC(=O)Nc2ccc(F)cc2)C1=O | 9.76%
19 | COc1ccc(C(=O)NCc2cccnc2)cc1 | -4.35%
20 | c1ccc(C2CC(c3cccs3)=NN2c2ccccc2)cc1 (stereo not shown) | 11.7%
21 | Cc1cc(NC(=O)CSc2nnc(-c3ccc(S(=O)(=O)N4CCCC4)cc3)n2C)no1 | 11.7%
22 | O=C(NC1CC1)C1=C[C@@H](C2CC2)C[C@@H](OCCCCO)O1 | 1.32%

Row | Structure (SMILES) | hERG current change (%, negative = inhibition) at 1uM
23 | CCOC(=O)c1c(C)c(C(=O)NCCCN2CCCC2=O)c(C)n1CC | 1.54%
24 | CC(=O)N1CCOc2ccc(S(=O)(=O)N3CCC(C(=O)Nc4cc(C)ccc4C)CC3)cc21 | 7.31%
25 | O=C(NC1CCCCC1)C1CCCN(S(=O)(=O)c2ccc(F)cc2)C1 (stereo not shown) | 4.71%
26 | CCC1=[N+](CC(=O)c2ccc(C)cc2)CCn2cccc21.[Br-] | 12.5%
27 | CC[C@H]1CN(C)CCc2c([nH]c3ccccc23)C(=O)C[C@@H]1/C(=C\OC)C(=O)OC | -53.3%
28 | COc1ccc(OC)c(-n2cc3c(=O)n(C)c(=O)n(C)c3c2)c1 | -4.49%
29 | COc1ccc(/C=C\C(=O)NCc2ccc3[nH]c(C)cc3c2)cc1OC | 6.87%
30 | COc1cccc(CNCCc2ccc3c(c2)OCO3)c1OC.O=C(O)C(=O)O | 5.32%
31 | Cc1c(Cl)cccc1NC(=S)NCCC(C)C | 16.7%
32 | COc1ccc(-n2c(SC)nnc2-c2c[nH]c3ccccc23)cc1 | 2.87%
33 | Cc1ccc(/C=C/C(=O)NCc2ccncc2)cc1 | 2.86%
34 | CCOc1ncccc1C(=O)NCc1ccc(OC)cc1 | 16.8%
35 | CC(C)Cc1nnc(NC(=O)CCC(=O)N2CCN(Cc3ccc(Cl)cc3)CC2)s1 | 14.6%
36 | O=[N+]([O-])c1cc(/C=N\Nc2ccccn2)ccc1Cl | 11.1%
37 | OCC[C@@H]1C[C@H](O)[C@@H](O)[C@]2(Cc3ccccc3O2)O1 | 4.27%
38 | CSc1nccc(Oc2cncc(Cl)c2)n1 | 10.5%
39 | CCC(C)(C)NC(=O)CN(C(=O)CCC(=O)Nc1nccs1)c1ccc2c(c1)OCO2 | 4.62%
40 | Cc1ccc(C(=O)OCCn2cc(C#N)c(=O)[nH]c2=O)cc1 | 11.6%
41 | COc1ccc(N/C=C(\C#N)c2nc3ccccc3n2C)c(OC)c1 | 4.3%
42 | CCOC(=O)N1CCN(C(=O)c2cccc(OC)c2OC)CC1 | 14%
43 | N#C/C(=C(/O)COC(=O)c1ccc(Cl)c(S(=O)(=O)N2CCOCC2)c1)c1nc2ccccc2[nH]1 | 6.33%
44 | CC(C)CCN(C(=O)Cc1ccccc1F)c1c(N)n(Cc2ccccc2)c(=O)[nH]c1=O | 3.85%

Row | Structure (SMILES) | hERG current change (%, negative = inhibition) at 1uM
45 | O=C(CSc1nnc(CNC(=O)c2ccco2)o1)Nc1nc2ccccc2s1 | 12.1%
46 | CCc1nnc(NC(=O)CN2CCN(S(C)(=O)=O)CC2)s1 | -5.51%
47 | CSCCC(NS(=O)(=O)c1ccc(Cl)cc1)C(=O)OCC(=O)N1CCCc2ccccc21 (stereo not shown) | 5.83%
48 | COc1ccc(OCC(=O)NNC(=O)Nc2cccc(Cl)c2)cc1 | 16.1%
49 | O=c1n(Cc2ccccc2)nc2n1-c1ccccc1SC2 | 9.1%
50 | CC1(C(=O)N/N=C/c2ccccc2)CC1(Br)Br (stereo not shown) | 9.54%
51 | Cc1ccc(/C(N)=N/OC(=O)c2ccco2)cc1 | 15.8%
52 | CC(=O)c1ccc(NC(=S)N2CCN(CCO)CC2)cc1 | 10.2%
53 | O=C(CCC(=O)N(CC(=O)NC1CCCCC1)c1ccc(F)cc1)Nc1ccccn1 | 4.77%
54 | COCCOC(=O)c1c(NC(=O)CN2c3ccccc3CC2C)sc(C(N)=O)c1C (stereo not shown) | 6.88%
55 | Cc1nn(Cc2ccc(Cl)cc2)c(C)c1N | 13.5%
56 | CCc1ccc(NCCC(=O)c2ccc(Br)cc2)cc1 | 43.2%
57 | CC(C)OCCCNC(=O)NC(=O)c1ccc(Cl)cc1 | 6.6%
58 | Cc1ccc(-c2nc(S(=O)(=O)c3ccc(C)cc3)c(N(C)C)o2)cc1 | 3.75%
59 | COC(=O)c1ccccc1NC(=O)CSCC(=O)Nc1ccccc1OC | 4.96%
60 | CC(OC(=O)Cn1cnc2c1c(=O)n(C)c(=O)n2C)C(=O)NCc1ccccc1 (stereo not shown) | 17%
61 | C#CCOCCOCCOCCNc1nc(N2CCN(C(=O)Cn3cc(CCCC[NH3+])nn3)CC2)nc(N2CCN(C(=O)Cn3cc(CCCC[NH3+])nn3)CC2)n1.[Cl-] | 8.09%
62 | CCOC(=O)C1CCN(C(=O)CCc2nnc3ccc(N4CCN(C)CC4)nn23)CC1 | 7.74%
63 | CCc1nnc(NC(=O)CN2C(=O)/C(=C/c3cc(OC)c(OC)c(OC)c3)SC2=S)s1 | 14.9%
64 | Cc1cccc2cc(C#N)c(SCC(=O)NCc3cccs3)nc12 | 6.43%
65 | COc1ccc2c(c1)cc1n2CCN2CCCN=C12.Cl | -18.4%
66 | Cc1cc(NC(=O)CCN2C(=O)/C(=C/c3ccccc3Cl)SC2=S)no1 | 12.3%

Row | Structure (SMILES) | hERG current change (%, negative = inhibition) at 1uM
67 | CCc1ccc(CCC(=O)Nc2nc(CC(C)=O)ns2)o1 | 17.6%
68 | N/C(=N\OC(=O)CCCN1C(=O)c2ccccc2C1=O)c1ccc(Br)cc1 | 8.42%
69 | Cc1sc2ncn(CC(=O)NCC(=O)N(C)Cc3ccccc3)c(=O)c2c1C | 3.63%
70 | CC(C)Cn1c(C23CC4CC(CC(C4)C2)C3)n[nH]c1=S | 10.1%
71 | Cc1ccc(/C=N/Nc2ccc(C(=O)O)cc2)o1 | 1.52%
72 | CCN(C(=O)COC(=O)c1ccc(C=O)cc1)c1c(N)n(Cc2ccccc2)c(=O)[nH]c1=O | 15.3%
73 | O=C(Nc1ccccc1[N+](=O)[O-])c1cccnc1Cl | 7.57%
74 | Cc1cc(C(=O)Nc2ccc(Br)cn2)sc1C | 14.7%
75 | CC(CN1CCOCC1)OC(=O)c1ccc(Cl)cc1Cl.Cl (stereo not shown) | 11.5%
76 | CC1=CC(=O)O[C@@H]1[C@@]1(C)C[C@H]2OC(=O)C[C@H]3[C@@H](C)C(=O)C(O)=C1[C@@]23CO | 4.82%
77 | CN(C)CCn1c2c(c(SCC(=O)Nc3ccccc3C(F)(F)F)nc1=O)CCCC2 | -0.132%
78 | Cc1ccc(N=C(NO)c2nonc2N)cc1 | 10.8%
79 | Cc1ccc(NC(=O)COC(=O)COc2ccc(Cl)cc2)c([N+](=O)[O-])c1 | -3.07%
80 | COc1cc2c(cc1OC)CN(C(=O)CSc1ccc(F)cc1)CC2 | 6.25%
81 | O=C(N/N=C1\CCCc2ccccc21)c1ccc([N+](=O)[O-])cc1Cl | 6.9%
82 | CC(=O)c1cccc(NC(=O)c2csc(-n3nc(C)cc3C(F)(F)F)n2)c1 | -0.0952%
83 | Cn1cccc1Cc1nnc(SCC(=O)Nc2ccccc2F)n1-c1ccc(F)cc1 | 4.36%
84 | COc1ccccc1Oc1ccc(N/C=C/C(=O)c2ccco2)cc1 | 26%
85 | CCCc1cc(=O)n2[nH]c(C)c(-c3ccccc3)c2n1 | 9.56%
86 | CCCCOc1ccc(C2OC34CCCCC3C(C#N)(C#N)C2(C#N)C(=N)O4)cc1 (stereo not shown) | 0.879%
87 | COC(=O)c1ccccc1NC(=O)CN1CCC(NC(=O)c2ccc(C)cc2)CC1 | 7.83%
88 | COc1ccccc1NS(=O)(=O)c1ccc(O)c(C(=O)OCC(=O)N2c3ccccc3CC2C)c1 (stereo not shown) | 5.21%
